# Laboratory results taken from the supplement of paper PMC9174493.
# The other results are listed elsewhere or left out. Single values of this set are uncertain. Values with irradiation are relative to irradiated vehicle.
# Columns and labels:
# A549-Dual [1] = assay: NF-kB reporter (SEAP) activity, viability-corrected, relative to vehicle (fold change vs vehicle); higher = more activation of STING-IRF / NF-kB immune response reporter; conditions: 10 µM
# A549-Dual [2] = assay: ISRE reporter (Lucia luciferase) activity, viability-corrected, relative to vehicle (fold change vs vehicle); higher = more activation of STING-IRF / NF-kB immune response reporter; conditions: 10 µM
# 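Wherever NF-kB reporter (SEAP) activity, viability-corrected, relative to vehicle is given: viability correction based on the alamar blue assay, with concentrations leaving 10% survival or less dropped.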
Structure (SMILES),NF-kB reporter (A549-Dual [1]; irradiation: 8 Gy/4 fr),NF-kB reporter (A549-Dual [1]; irradiation: none),ISRE reporter (A549-Dual [2]; irradiation: 8 Gy/4 fr),ISRE reporter (A549-Dual [2]; irradiation: none)
CC(OC1OCCN(Cc2nn(P(=O)(O)O)c(=O)[nH]2)C1c1ccc(F)cc1)c1cc(C(F)(F)F)cc(C(F)(F)F)c1.CNCC(O)C(O)C(O)C(O)CO.CNCC(O)C(O)C(O)C(O)CO (stereo not given) [Fosaprepitant dimeglumine salt],0.687,0.712,0.571,1.24
CCCCOc1cc(C(=O)NCCN(CC)CC)c2ccccc2n1 [Cinchocaine],1.5,0.677,1.86,0.98
CCCCCCCCCCCCCCCCCCC(=O)O [Nonadecanoic acid],1.34,0.664,1.13,0.509
Cl.NC1C(O)OC(CO)C(O)C1O (stereo not given) [Glucosamine hydrochloride],1.04,1.15,0.856,0.717
Cc1cc(C(C)(C)C)cc(C)c1CC1=NCCN1.Cl [Xylometazoline HCl],0.839,0.856,0.922,0.846
CO/N=C(\C(=O)NC1C(=O)N2C(C(=O)[O-])=C(C[n+]3cccc4c3CCC4)CSC12)c1csc(N)n1.O=S(=O)(O)O (stereo not given) [Cefpirome sulfate],0.771,0.932,0.869,0.803
O=C(O)c1ccc(C(=O)O)cc1 [Terephthalic acid],0.751,0.772,0.82,0.637
CS(=O)(=O)OCCCCOS(C)(=O)=O [Busulfan],0.806,1.03,0.749,0.952
CS(=O)(=O)O.Fc1ccc(C2CCNCC2COc2ccc3c(c2)OCO3)cc1 (stereo not given) [Paroxetine mesylate],0.641,1.12,0.475,0.684
O=c1cc(-c2ccc(O)cc2)oc2c(C3OC(CO)C(O)C(O)C3O)c(O)cc(O)c12 (stereo not given) [Vitexin],0.632,0.726,0.518,0.584
